This sample is rich in variants without activity.
B1: TPR 5TU (parent)
chain: GGAUCUUCUCGAUCUAACAAAAAAGACAAAUCUGCCACAAAGCUUGAGAGCAUCUUCGGAUGCAGAGGCGGCAGCCUUCGGUGGCGCGAUAGCGCCAACGUUCUCAACUAUGACACGCAAAACGCGUGCUCCGUUGAAUGGAGUUUAUCAUG

Variants of: B1
Assay: polymerase ribozyme fitness, log enrichment relative to wild type (log ratio); higher = more active; in vitro selection for triplet polymerase activity
Summary of the method: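 Mutant libraries for each subunit of a heterodimeric triplet polymerase ribozyme were made by PCR and then transcribed. Each library underwent one round of in vitro selection in triplicate: annealing with a biotinylated primer, the partner subunit and triplets, frozen incubation at −7 °C, gel excision of extended constructs, streptavidin-bead capture and RT-PCR. Input and output libraries were Illumina-sequenced, and only genotypes with ≥10 input reads and ≥1 read per output were kept. Fitness is the logarithm, base 2, of genotype enrichment over wild-type enrichment, computed from inverse-variance-weighted replicate averages.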
In the case of A24U C32U A40C A47U, the “polymerase ribozyme fitness (log ratio)” value is reported as no more than -4.2.
For A24C G50U C95A U127A G136U G141C C149G, the “polymerase ribozyme fitness (log ratio)” value was no more than -4.2.
In the case of A24C C36G C51A C85A A115U, the “polymerase ribozyme fitness (log ratio)” value is reported as no more than -4.2.
In the case of A24G A49C C51A U78G G81C, the “polymerase ribozyme fitness (log ratio)” value is reported as no more than -4.2.
In the case of A24C A49C C57A G80A C87U U90C, the “polymerase ribozyme fitness (log ratio)” value is reported as no more than -4.2.
In the case of A24U A73G C87A G136C, the “polymerase ribozyme fitness (log ratio)” value is reported as no more than -4.2.
For A24G G94C C96G, the “polymerase ribozyme fitness (log ratio)” value was no more than -4.2.
In the case of A24C C35G C36A C87U A98G C105U U109C A110U C116A A142U, the “polymerase ribozyme fitness (log ratio)” value is reported as no more than -4.2.
With A24U A26U A60C C79G C96G A120U the “polymerase ribozyme fitness (log ratio)” value was no more than -4.2.
In the case of A24U A40C G42C C93U C105A U139G, the “polymerase ribozyme fitness (log ratio)” value is reported as no more than -4.2.
With A23U U78G C93U C95U the “polymerase ribozyme fitness (log ratio)” value was no more than -4.2.
For A24G U44G G50C G71U C85G G92A G136A, the “polymerase ribozyme fitness (log ratio)” value was no more than -4.2.
In the case of A24G C35A A64G G68U A91U U109A G126U A137U G152U, the “polymerase ribozyme fitness (log ratio)” value is reported as no more than -4.2.
With A24U A29U C57U C69A G83A C87G U148G the “polymerase ribozyme fitness (log ratio)” value was no more than -4.2.
In the case of A24G C36U C87U G133C, the “polymerase ribozyme fitness (log ratio)” value is reported as no more than -4.2.
In the case of A24C A41C C69U C79A C85A C99U A119C U130C, the “polymerase ribozyme fitness (log ratio)” value is reported as no more than -4.2.
With A24C U31A A52C U53A G58C G88A U109G the “polymerase ribozyme fitness (log ratio)” value was no more than -4.2.
With G25A A28G G88C C99U U101G A113G C116U C118G A121C A142C the “polymerase ribozyme fitness (log ratio)” value was no more than -4.2.
In the case of A24G A28G C72U G94U A98U C99A A150C, the “polymerase ribozyme fitness (log ratio)” value is reported as no more than -4.2.
In the case of A24G C27G G50A A73G G84A C85A A89G C99G G126U U130C, the “polymerase ribozyme fitness (log ratio)” value is reported as no more than -4.2.
In the case of A24U C76U C96A A115U A142C, the “polymerase ribozyme fitness (log ratio)” value is reported as no more than -4.2.
With A24C G68A C76U C93A U139G A142G the “polymerase ribozyme fitness (log ratio)” value was no more than -4.2.
With A24C A30G U44G G71U U139G U148A C149G the “polymerase ribozyme fitness (log ratio)” value was no more than -4.2.
For A24U G59C C63U G84C C87G C96A A106U A137U, the “polymerase ribozyme fitness (log ratio)” value was no more than -4.2.
With G25A C75A G81A G88A G124A A138U the “polymerase ribozyme fitness (log ratio)” value was no more than -4.2.
With A24U A29U U151A the “polymerase ribozyme fitness (log ratio)” value was no more than -4.2.
In the case of A24C A39G U56A A64G G83C C87A U101C, the “polymerase ribozyme fitness (log ratio)” value is reported as no more than -4.2.
In the case of A24G U44A A49C U82G A122U G140C C149U, the “polymerase ribozyme fitness (log ratio)” value is reported as -4.02.
For A24U A60U A91C A119C, the “polymerase ribozyme fitness (log ratio)” value was no more than -4.2.
For A24U G50U G88U G100U, the “polymerase ribozyme fitness (log ratio)” value was no more than -4.2.
In the case of G25C A26G A52U C96U G100A G124A, the “polymerase ribozyme fitness (log ratio)” value is reported as no more than -4.2.
With A24C U44A A97C A98U U101G U134A the “polymerase ribozyme fitness (log ratio)” value was no more than -4.2.
For A24C U33A A49G U55A G70U C96G U101G C105G A120U G141A, the “polymerase ribozyme fitness (log ratio)” value was no more than -4.2.
For A23U G80C G83A C118A G133A, the “polymerase ribozyme fitness (log ratio)” value was no more than -4.2.
With A24G C32U C35G A64U C96A U135C U146A the “polymerase ribozyme fitness (log ratio)” value was no more than -4.2.
In the case of A24U A47G A49C G50A A52G U56A G92U U148G G152U, the “polymerase ribozyme fitness (log ratio)” value is reported as no more than -4.2.
For A24G G62A C85U G100U C103A, the “polymerase ribozyme fitness (log ratio)” value was no more than -4.2.
For A24U A28C A52G G71A C96G A137C, the “polymerase ribozyme fitness (log ratio)” value was no more than -4.2.
In the case of A24U U33G U56A A91G C103A, the “polymerase ribozyme fitness (log ratio)” value is reported as no more than -4.2.
For A23U G59A G62C C95A, the “polymerase ribozyme fitness (log ratio)” value was no more than -4.2.
In the case of A24U G46U G70A C87U C105U, the “polymerase ribozyme fitness (log ratio)” value is reported as no more than -4.2.
In the case of A23U G80U A91U G143C A150G, the “polymerase ribozyme fitness (log ratio)” value is reported as no more than -4.2.
For A24U G48U G83A, the “polymerase ribozyme fitness (log ratio)” value was -1.25.
For A23U G58C G100U G141C, the “polymerase ribozyme fitness (log ratio)” value was no more than -4.2.
For A24G C32U A41C G48A G74A U130G G136A, the “polymerase ribozyme fitness (log ratio)” value was no more than -4.2.
With A24U G58U G71A G81A G88A the “polymerase ribozyme fitness (log ratio)” value was no more than -4.2.
For G25A A29G C32G U44A C79A G94A C105A C116U U134A, the “polymerase ribozyme fitness (log ratio)” value was no more than -4.2.
With A24C A41C G88A C99U the “polymerase ribozyme fitness (log ratio)” value was no more than -4.2.
In the case of A24G G46A G50A C57G G92U U145A, the “polymerase ribozyme fitness (log ratio)” value is reported as no more than -4.2.
With A24C G46A U90G G94U A106G the “polymerase ribozyme fitness (log ratio)” value was no more than -4.2.
For A24U A28C A40U A52U G68A C79G, the “polymerase ribozyme fitness (log ratio)” value was no more than -4.2.
With A24U A30C C79U G80C C85U C96G G117C the “polymerase ribozyme fitness (log ratio)” value was no more than -4.2.
In the case of A24U C38U U56A G83C A91C G143C, the “polymerase ribozyme fitness (log ratio)” value is reported as no more than -4.2.
In the case of A24C G74A G81A C93U C108G A137U U146G, the “polymerase ribozyme fitness (log ratio)” value is reported as no more than -4.2.
For A24U U55A U151G, the “polymerase ribozyme fitness (log ratio)” value was no more than -4.2.
For A24U C54U C99G C105A U135G, the “polymerase ribozyme fitness (log ratio)” value was no more than -4.2.
In the case of A24U U56G G65C G68A A91U U135C, the “polymerase ribozyme fitness (log ratio)” value is reported as no more than -4.2.
In the case of A23U G50U C95A U146G, the “polymerase ribozyme fitness (log ratio)” value is reported as no more than -4.2.
With A24U C32G G59A A66G C93U the “polymerase ribozyme fitness (log ratio)” value was no more than -4.2.
With A24U A39G C79A C131G the “polymerase ribozyme fitness (log ratio)” value was no more than -4.2.
With A24C C32G U33C C57A C95U C103G C105U the “polymerase ribozyme fitness (log ratio)” value was no more than -4.2.
In the case of A24G C36A C96U U151G, the “polymerase ribozyme fitness (log ratio)” value is reported as no more than -4.2.
For A24U A41U G42C A115G C125A, the “polymerase ribozyme fitness (log ratio)” value was no more than -4.2.
For A24U A29G A52C G68C C129A, the “polymerase ribozyme fitness (log ratio)” value was no more than -4.2.
For A24C C51G U56A A89C C103A U144G U145G, the “polymerase ribozyme fitness (log ratio)” value was no more than -4.2.
With A24G C51G G59C G92C C99U C125U the “polymerase ribozyme fitness (log ratio)” value was no more than -4.2.
For A24U A37G, the “polymerase ribozyme fitness (log ratio)” value was -2.41.
In the case of A24U C43G U77G C96G A97G C103U G133U G152U, the “polymerase ribozyme fitness (log ratio)” value is reported as no more than -4.2.
With A24U C38G C85U C87U A120C C132G the “polymerase ribozyme fitness (log ratio)” value was no more than -4.2.
In the case of A24C G74U A119G, the “polymerase ribozyme fitness (log ratio)” value is reported as no more than -4.2.
For A24G C54G G68U C76G G81A C85G C118U, the “polymerase ribozyme fitness (log ratio)” value was no more than -4.2.
For A24C C43U C54U G86U G94C C99U U145G, the “polymerase ribozyme fitness (log ratio)” value was no more than -4.2.
With A24C C32U A39U U90A C95G A138U U144A the “polymerase ribozyme fitness (log ratio)” value was no more than -4.2.
For A24G A37U G70C C76G A138U, the “polymerase ribozyme fitness (log ratio)” value was no more than -4.2.
In the case of A24U A39U G86A A97U C99G, the “polymerase ribozyme fitness (log ratio)” value is reported as no more than -4.2.
With A23U U55A C69A A73U U127A the “polymerase ribozyme fitness (log ratio)” value was no more than -4.2.
For A24G A52G G84A C87G U101G A119G G141U, the “polymerase ribozyme fitness (log ratio)” value was no more than -4.2.
For A24C C93A, the “polymerase ribozyme fitness (log ratio)” value was no more than -4.2.
For A24U A26C A29U A40U A52G G62U C85U, the “polymerase ribozyme fitness (log ratio)” value was no more than -4.2.
In the case of A23U G88U A89U C96G, the “polymerase ribozyme fitness (log ratio)” value is reported as no more than -4.2.
With A24C G94A C95U A115U C116U A142G G143C the “polymerase ribozyme fitness (log ratio)” value was no more than -4.2.
For A24U C96U C129G, the “polymerase ribozyme fitness (log ratio)” value was -3.47.
For G25A U111G, the “polymerase ribozyme fitness (log ratio)” value was no more than -4.2.

Reference: the RNAGym collection of RNA variant scans (doi:10.1073/pnas.2313332121)
